Results from the RNAGym collection of RNA variant scans (doi:10.7554/elife.90254).
Read counts are not given, so values of variants with three or more changes are uncertain.

B1: LINE1-mini (parent)
chain: GGCAGAGCUCAACACAGCGUGGCAAAGUGGCUGUGGCUAGACUGCC

Variants of: B1
Assay: self-cleavage, relative activity (ratio to wild type); higher = more cleavage; in vitro, sequencing; the parent is a self-cleaving ribozyme
G1A C13A G27C G36C gave a self-cleavage of 0.28.
Work on G1A C10A C13A U20C G33A A39G yielded a self-cleavage of 0.02.
For G1A A16U C18U G35U C37A U38A, the self-cleavage was 0.01.
For G1A C8G G17U U32G U38C G44A C46G, the self-cleavage was 0.15.
G1A G2C C3G A11G C18A U34G C37U A39G showed a self-cleavage of 0.01.
For G1A A24U G27U U38G U43A, the self-cleavage was 0.03.
G1A G2A U9A A12G U32G showed a self-cleavage of 0.07.
With G1A A6C G17C G21U G36C the self-cleavage was 0.05.
In the case of G1A C10A A25U G29C G33A A41C, the self-cleavage is reported as 0.01.
For G1A A26C G36C, the self-cleavage was 0.23.
In the case of G1A A11C G33U, the self-cleavage is reported as 0.02.
In the case of G1A C18U G22C C31U, the self-cleavage is reported as 0.03.
With G1A A4C C15A A25C the self-cleavage was 0.05.
For G1A A4C G27U G36U, the self-cleavage was 0.12.
G1A C13A G21U U38A showed a self-cleavage of 0.
G1A C18A G19A C45A gave a self-cleavage of 0.08.
Work on G1A A24C A39U yielded a self-cleavage of 0.04.
In the case of G1A C18U G27U, the self-cleavage is reported as 0.15.
In the case of G1A A4G A6U U9G C15A C31U A39U, the self-cleavage is reported as 0.15.
With G1A G2C U9A C42G the self-cleavage was 0.11.
With G1A C8U C15A C23A A24C the self-cleavage was 0.06.
Variant G1A G2A G5U A6C C23A has a self-cleavage of 0.1.
With G1A A4G C42A the self-cleavage was 0.06.
G1A A12U C37U gave a self-cleavage of 0.01.
G1A A14C G33U showed a self-cleavage of 0.02.
G1A A4G C31U U43A showed a self-cleavage of 0.04.
In the case of G1A C23U G44U, the self-cleavage is reported as 0.26.
With G1A C3U G17A the self-cleavage was 0.25.
With G1A C13U G27A G44C the self-cleavage was 0.25.
Work on G1A C15A G21U yielded a self-cleavage of 0.07.
Work on G1A A4C C10U G27U U38G yielded a self-cleavage of 0.
G1A C13A G33C C45U gave a self-cleavage of 0.02.
In the case of G1A G2C C31A, the self-cleavage is reported as 0.23.
For G1A C3G G29C C42A, the self-cleavage was 0.03.
Variant G1A A4U A11G U20G G29C has a self-cleavage of 0.04.
Variant G1A A11U G40C has a self-cleavage of 0.
Variant G1A C3G C18G C45A has a self-cleavage of 0.16.
G1A A24G C37U showed a self-cleavage of 0.05.
G1A G2A C10A G17A U34G gave a self-cleavage of 0.06.
G1A G2U A6G gave a self-cleavage of 0.08.
Variant G1A G2A G19C C37U A39G C42A has a self-cleavage of 0.03.
G1A A11C U38C showed a self-cleavage of 0.08.
In the case of G1A A6U G21C C23U, the self-cleavage is reported as 0.28.
For G1A G2U C10U A14C C18U U28A C42G, the self-cleavage was 0.03.
Work on G1A C23U A26C yielded a self-cleavage of 0.18.
Work on G1A A4G U34G G36C yielded a self-cleavage of 0.01.
For G1A A4C A39U, the self-cleavage was 0.1.
G1A G2A A11G C15A showed a self-cleavage of 0.04.
Variant G1A A6G U20G A25G G40C C46U has a self-cleavage of 0.04.
G1A A4C A12U U20G G21U gave a self-cleavage of 0.24.
For G1A C10A A24U A41C C46A, the self-cleavage was 0.03.
G1A C3G C15U C46A showed a self-cleavage of 0.25.
G1A C18A G35C C37G gave a self-cleavage of 0.05.
Work on G1A C18G A26C yielded a self-cleavage of 0.14.
With G1A A12U G17U G19U A39G the self-cleavage was 0.01.
With G1A G2A A12U G29U the self-cleavage was 2.07.
In the case of G1A A12G U32A G40A, the self-cleavage is reported as 0.06.
Work on G1A A14C G17C yielded a self-cleavage of 0.04.
In the case of G1A A24G A25U A39U, the self-cleavage is reported as 0.1.
G1A A12G G27A U43A gave a self-cleavage of 0.
Work on G1A C42A C45A yielded a self-cleavage of 0.39.
G1A C15U U32G C37U showed a self-cleavage of 0.1.
Work on G1A A24U C37A yielded a self-cleavage of 0.11.
For G1A A12G C15G G22U, the self-cleavage was 0.04.
For G1A C3U A24C U32A, the self-cleavage was 0.16.
For G1A C8G G21A G22C C31U G33U, the self-cleavage was 0.15.
Work on G1A C13U G35U C45G yielded a self-cleavage of 0.03.
G1A C15G G36U gave a self-cleavage of 0.03.
G1A C15G G36C gave a self-cleavage of 0.09.
In the case of G1A A11C C18A G29U, the self-cleavage is reported as 0.06.
Variant G1A A26U U34A A41G has a self-cleavage of 0.05.
Work on G1A A6C A12U C15U G19A G27A G35U yielded a self-cleavage of 0.08.
Work on G1A C10A A14G U28A G30A C45G C46U yielded a self-cleavage of 0.08.
Work on G1A A6C G22U U34G yielded a self-cleavage of 1.27.
Work on G1A C18U G44U yielded a self-cleavage of 0.77.
In the case of G1A C3G G5A U9A, the self-cleavage is reported as 2.88.
With G1A A6U C10G G29A the self-cleavage was 0.17.
With G1A C8G G17A A25U U28A the self-cleavage was 0.03.
Work on G1A C8A G29C U38G yielded a self-cleavage of 0.06.
In the case of G1A A6C G19U, the self-cleavage is reported as 0.17.
G1A C3U G40A A41U showed a self-cleavage of 0.1.
G1A C10A U38A C42U showed a self-cleavage of 0.06.
Variant G1A G2C A4U C15A C45A C46G has a self-cleavage of 0.14.
Work on G1A C15A C37A yielded a self-cleavage of 0.04.
